# PubChem BioAssay AID686978 (National Center for Advancing Translational Sciences (NCATS), 2013)
# The campaign covered roughly 420,000 compounds. About 64,000 (15%) were called active. Inconclusive results, whose numbers are uncertain, are shown with a selection of clear calls. Calls follow the shape of the dose curve; as a rule, active = well fitted inhibition curve with a large enough effect; inconclusive = small, poorly fitted or top-dose-only effect; inactive = flat fitted curve, though single readings scatter. Potencies of inconclusive entries are left out as doubtful fits.
# Test: qHTS for Inhibitors of human tyrosyl-DNA phosphodiesterase 1 (TDP1): qHTS in cells in absence of CPT; also: nearly all actives have a fitted effect of over 55% in size
# Details: DT40 Tdp1-/- hTDP1 cells, no CPT, ATP luminescence, 48 h; series mostly up to 46.2 µM
# Outline: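 Seeded 400 DT40-hTDP1 cells/well (vehicle DMSO, no 20 nM CPT); pinned compounds; ≥48 hr at 37 °C; CellTiter-Glo luminescence as viability measure.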
# Potency is read from the fitted curve at half-maximal effect; tags tell the direction and shape of the fitted curve.
row,SMILES,Potency
1,CCN(c1ccccc1)S(=O)(=O)c1ccc(C(=O)Nc2cccc(C)n2)cc1,active: 11.6 µM
2,CN1N=C(C(=O)Nc2ccc3c(c2)CCC3)CCC1=O,inactive
3,Cc1ccccc1NC(=O)N1CCNC(=O)C1CC(=O)Nc1cc(Cl)ccc1Cl (stereo not drawn),inactive
4,O=C(Nc1cccc(F)c1)N1CC2(CCN(S(=O)(=O)c3ccccc3)CC2)C1,"inconclusive [inhibitor, single point]"
5,Fc1ccc(-[n+]2nc(Nc3ccccc3)sc2-c2c3ccccc3cc3ccccc23)cc1,active: 3.66 µM
6,CCN(C(=O)COC(=O)/C=C/c1cccc([N+](=O)[O-])c1)c1c(N)n(Cc2ccccc2)c(=O)[nH]c1=O,"inconclusive [inhibitor, single point]"
7,Cc1ccc(SCC(=O)NCCCN2CCOCC2)cc1,inactive
8,CCC(=O)Nc1c(-c2ccc(OC)cc2)c(=O)c2ccccc2n1C,inactive
9,Cc1cccc(CNC(=O)c2ccc(NC(=O)N3CCSc4ccccc43)cc2)c1,active: 9.2 µM
10,O=C(NCCc1ccc2c(c1)OCCO2)c1cccc(S(=O)(=O)N2CCCC2)c1,"inconclusive [inhibitor, single point]"
11,C#CCOCCOCCOCCNc1nc(N2CCN(C(=O)[C@H]([C@@H](C)CC)n3cc([C@@H](N)Cc4ccc(O)cc4)nn3)CC2)nc(N2CCN(C(=O)[C@H](Cc3cc4ccccc4[nH]3)n3cc([C@@H](N)CC(C)C)nn3)CC2)n1,"inconclusive [inhibitor, single point]"
12,CCN(CC)C(=O)[C@H]1C[C@H](CC(=O)NCCc2ccccn2)C(=O)N2CCc3c([nH]c4cc(-c5ccco5)ccc34)[C@]12C,"inconclusive [inhibitor, single point]"
13,N#CCN(C(=O)COC(=O)CCCNC(=O)c1ccc(Cl)cc1)c1ccccc1,inactive
14,Cc1cccc(NCCC#N)c1,inactive
15,CCCCCCCC(=O)N/N=C(\C)c1ccc(O)cc1O,"inconclusive [inhibitor, single point]"
16,Cc1ccc(C(=O)N(CC(=O)NC2CCCC2)c2ccccc2F)s1,"inconclusive [inhibitor, single point]"
17,CC(C)n1c(-c2cccnc2)nc2cnccc21,inactive
18,CCOC(=O)[C@]12CCC=C1N(CCC1=CCCCC1)C(=O)[C@H](CC(=O)N1CCOCC1)C2,"inconclusive [inhibitor, single point]"
19,O=C(NCCCN1CCN(c2ccccc2F)CC1)c1cc2c(s1)-c1ccccc1OC2,"inconclusive [inhibitor, single point]"
20,O=c1c2ccccc2[nH]c(=S)n1CCCN1CCN(c2ccccc2F)CC1,"inconclusive [inhibitor, partial curve, poor fit]"
21,CCOC(=O)N1CCN(C(=S)Nc2cc(S(=O)(=O)N3CCOCC3)ccc2Cl)CC1,active: 18.4 µM
22,Cc1c(C(=O)Nc2ccc(S(=O)(=O)N3CCOCC3)cc2)cccc1[N+](=O)[O-],"inconclusive [inhibitor, single point]"
23,CCOC(=O)C1=CCN(S(=O)(=O)c2ccccc2Br)C1c1ccc(C)cc1 (stereo not drawn),"inconclusive [inhibitor, single point]"

row,SMILES,Potency
1,Cc1ccc(NC(=O)Cn2c(SCc3ccc(F)cc3)nc3cccnc32)cc1F,inactive
2,COc1ccccc1C(=O)NC(CCSC)C(=O)OC(C)C(=O)NC1CC1 (stereo not drawn),inactive
3,CCOc1ccc(-n2ccnc2SCC(=O)Nc2nnc(C)s2)cc1,"inconclusive [inhibitor, partial curve]"
4,CCCCCCc1cc2cc(S(=O)(=O)c3ccc(C)cc3)c(=O)oc2cc1O,"inconclusive [inhibitor, single point]"
5,O=C(CSc1nc2ccccc2c(=O)n1CC1CCCO1)Nc1ccc(F)cc1 (stereo not drawn),"inconclusive [inhibitor, single point]"
6,CCCCOc1ccc(C(=O)N/C(=C\c2ccc(Br)cc2)C(=O)NC2CCCCC2)cc1,"inconclusive [inhibitor, full curve]"
7,NC(=O)C1CCN(c2nc3c(S(=O)(=O)c4ccccc4)nnn3c3ccccc23)CC1,"inconclusive [inhibitor, single point]"
8,CSCCC(NS(=O)(=O)c1ccc2c(c1)oc(=O)n2C)C(=O)N1CCN(c2ccc(F)cc2)CC1 (stereo not drawn),"inconclusive [inhibitor, partial curve]"
9,Cc1ccccc1-c1nc2ccccc2c(=O)o1,active: 16.4 µM
10,Cc1ccc(C)c(NC(=S)NCc2cccs2)c1,active: 29.1 µM
11,CC1CCCN(c2nc3c(c(=O)n(C)c(=O)n3C)n2CCSc2nc3ccccc3s2)C1 (stereo not drawn),active: 18.4 µM
12,CCOC(=O)C1(CC)CC(CSc2nc3ccccc3[nH]2)OC1=O (stereo not drawn),"inconclusive [inhibitor, partial curve, poor fit]"
13,CC(=O)c1c(C)n(C)c2ccc(O)cc12,"inconclusive [inhibitor, single point]"
14,CCCc1nc2c(nnn2Cc2ccccc2Cl)c(=O)[nH]1,inactive
15,Cc1ccc(CNC(=O)C2CCN(S(=O)(=O)c3c(C)noc3/C=C/c3ccco3)CC2)cc1,"inconclusive [inhibitor, single point]"
16,Cc1cccc(C(=O)Nc2sc(-c3ccccc3)cc2C(=O)O)c1,"inconclusive [inhibitor, partial curve]"
17,CCOC(=O)C1(CCOc2ccccc2)CCN(Cc2ccncc2)CC1,active: 25.9 µM
18,O=C(CN(Cc1cccs1)C(=O)CSc1nnc(COc2ccccc2)o1)NC1CCCCC1,"inconclusive [inhibitor, single point]"
19,COC(=O)c1nn(-c2ccccc2)c(Cl)c1/C=N/OCc1ccc(Cl)cc1Cl,active: 29.1 µM
20,C=CCOc1ccc(C2NC(=O)c3ccccc3O2)cc1 (stereo not drawn),inactive
21,CCc1cccc(NC(=O)CCS(=O)(=O)c2ccc3nc(C)sc3c2)c1,"inconclusive [inhibitor, single point]"
22,CN(Cc1ccc(OC(F)F)cc1)C(=O)c1ccc(S(=O)(=O)N(C)c2ccccc2)cc1,inactive
23,Cc1oc2cc([N+](=O)[O-])c(O)c([N+](=O)[O-])c2c1C(=O)c1ccc(Br)cc1,"inconclusive [inhibitor, single point]"

row,SMILES,Potency
1,COc1ccc(CNc2ccnc(-c3cccnc3)n2)c(OC)c1,"inconclusive [inhibitor, single point]"
2,CC(C)c1nc(-c2c(N)n(C)c(=O)n(C)c2=O)sc1C(=O)C(C)(C)C,"inconclusive [inhibitor, full curve]"
3,Cc1ccc([N+](=O)[O-])cc1NC(=O)CN(C1CCCCC1)S(=O)(=O)c1ccc(Cl)cc1,"inconclusive [inhibitor, single point]"
4,O=C(Nc1cccc(F)c1)C1CCN(c2nc3ccccc3[nH]2)CC1,"inconclusive [inhibitor, single point]"
5,O=C(N/N=C/c1ccc(OCc2ccccc2)cc1)c1ccco1,"inconclusive [inhibitor, partial curve]"
6,Cc1cccc(-n2ccnc2SCC(=O)Nc2ccc3c(c2)OCO3)c1,"inconclusive [inhibitor, single point]"
7,CN1CCN(c2ccc(S(=O)(=O)N3CCCCC3)cc2NC(=O)Cc2c(F)cccc2Cl)CC1,"inconclusive [inhibitor, single point]"
8,Cc1nnc(N2C(=O)C(=O)/C(=C(/O)c3ccc4c(c3)OCCO4)C2c2ccc(F)cc2)s1 (stereo not drawn),inactive
9,Cc1nc2c3ccccc3nc(NNC(=O)CCC(=O)N3CCN(c4cccc(C(F)(F)F)c4)CC3)n2n1,active: 23.1 µM
10,O=C(NCCS(=O)(=O)N1CCN(c2ccccc2F)CC1)c1ccc(F)c(F)c1,"inconclusive [inhibitor, partial curve, poor fit]"
11,COc1cccc(N(C(=O)Cn2nnc(-c3cccs3)n2)C(C(=O)NC(C)C)c2ccc(C)o2)c1 (stereo not drawn),"inconclusive [inhibitor, single point]"
12,COc1ccc(CN2C(=O)c3oc4ccccc4c(=O)c3C2c2ccc(O)c(OC)c2)cc1 (stereo not drawn),"inconclusive [inhibitor, single point]"
13,Nc1c(C(=O)c2ccccc2)sc2c1c(=O)[nH]c(=O)n2-c1ccccc1,inactive
14,Cc1c(OCC(=O)NCCN2CCOCC2)ccc2c(-c3ccccc3)cc(=O)oc12,"inconclusive [inhibitor, single point]"
15,CCCCNc1nc2c(c(=O)n(C)c(=O)n2C)n1CCC,"inconclusive [inhibitor, partial curve]"
16,CC(NC(=O)CN(C)S(=O)(=O)c1ccc(F)cc1)C1CC2CCC1C2 (stereo not drawn),inactive
17,COc1ccc(/C=C/C(=O)Nc2cccc(S(=O)(=O)NC3=NCCCCC3)c2)cc1OC,active: 8.2 µM
18,COc1ccc(C(C)=O)cc1Cn1c(C)c(C(=O)NCc2cccc(C(F)(F)F)c2)sc1=O,"inconclusive [inhibitor, single point]"
19,Cc1csc(=O)n1CCC(=O)OCC(=O)c1ccc(Br)cc1,inactive
20,COc1ccc(C)c(-n2c(=O)n(Cc3ccccc3)c(=O)c3[nH]cnc32)c1,inactive
21,CCCCn1c(-c2ccccc2)cnc1SCC(=O)NCCc1ccc(OC)c(OC)c1,active: 25.9 µM
22,Cc1noc2ncnc(Oc3ccc(F)cc3)c12,inactive
